Measured values from PubChem BioAssay AID504845 (National Center for Advancing Translational Sciences (NCATS), 2011).
Out of some 390,000 compounds screened, about 150 (0.038%) were called active. This list was built around the results that the source calls inconclusive (neither active nor inactive); the mix of calls is not that of the screen. Calls come from the whole dose curve; as a rule, active = well fitted inhibition curve with a large enough effect; inconclusive = small, poorly fitted or top-dose-only effect; inactive = no such curve, though single readings can be large or run the other way. A potency beside an inconclusive call is a rough fit, not a confirmed value.

Biological target: Regulator of G-protein signaling 4 (Homo sapiens) (UniProt P49798)
Test: Inhibitors of Regulator of G Protein Signaling (RGS) 4: qHTS; note: nearly all actives have a fitted effect of over 75% in size
Details: Transcreener GDP fluorescence polarization, RGS4-accelerated GTP hydrolysis; series mostly up to 114 µM
In short: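 MLSMR compounds (23 nl, pin-transferred) preincubated 10 min at room temperature with a 500nM (2x) first reagent, then RGS4 at 900nM (2x) plus Transcreener GDP mix added; fluorescence polarization (620/688 nm) read before and after 90 min at 30 °C.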
Potency is the fitted concentration of half-maximal effect; tags give direction and shape of the fitted curve.

UniProt P49798, sequence (P49798 whole entry, looked up): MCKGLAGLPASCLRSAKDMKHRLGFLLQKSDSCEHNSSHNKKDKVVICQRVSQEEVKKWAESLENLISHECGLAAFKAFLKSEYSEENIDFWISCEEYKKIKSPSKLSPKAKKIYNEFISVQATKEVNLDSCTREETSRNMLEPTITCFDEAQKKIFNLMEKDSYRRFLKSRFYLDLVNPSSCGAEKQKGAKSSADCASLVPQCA

Structure (SMILES) | Potency
CCCC[C@H](CN[C@@H](CNC)[C@H](C)CC)NCCC12CCC(CC1)C2 | inconclusive: 89.1 µM [inhibitor, single point]
O=C(O)CN1C(=O)/C(=C/C=C/c2ccccc2)SC1=S | inconclusive: 44.7 µM [inhibitor, partial curve, poor fit]
Cc1ccc(Nc2cc(C)c(O)c(C)c2)cc1 | inconclusive: 79.4 µM [inhibitor, partial curve, poor fit]
CCc1ccc(Nc2nnc(SCC(=O)NC(=O)c3cccn3C)s2)cc1 | inactive
Cc1ccc(-c2csc3ncnc(-n4nc(C)cc4N)c23)cc1 | inactive
CC(=O)n1c2ccccc2c2nc(NC(C)C)sc21 | inconclusive: 56.2 µM [inhibitor, partial curve, poor fit]
CC(=O)c1cc(NC(=O)c2ccc(C)cc2)c(=O)oc1C | inconclusive: 39.8 µM [inhibitor, partial curve, poor fit]
CC(=O)c1ccc(-c2nc3ccccc3n2C)o1 | inactive
Cc1ccc(/C=C2/Sc3ccc(C(=O)NCc4ccccn4)cc3NC2=O)cc1 | inconclusive: 50.1 µM [inhibitor, partial curve, poor fit]
Cc1cc(C)cc(OCC(=O)Nc2nc(-c3cccnc3)cs2)c1 | inconclusive: 79.4 µM [inhibitor, partial curve, poor fit]
COc1ccc(-c2csc(Nc3ccc(S(N)(=O)=O)cc3)n2)cc1 | inconclusive: 50.1 µM [inhibitor, partial curve, poor fit]
CCOc1ccc(OCCCC(=O)NNC(=O)c2ccncc2)cc1 | inactive
O=C(Nc1cccc(F)c1)c1ccc(S(=O)(=O)NCC2CCCO2)cc1 (stereo not given) | inactive
COC(=O)Cc1sc(-c2ccccn2)nc1-c1ccccc1 | inconclusive: 79.4 µM [inhibitor, partial curve, poor fit]
Cc1noc(/C=C/c2ccc(-c3ccccc3Cl)o2)c1[N+](=O)[O-] | inactive
Cc1ccc2c(c1)NC(=O)C(CC(=O)NCCCN1CCCC1=O)O2 (stereo not given) | inconclusive: 89.1 µM [inhibitor, single point]
CC(=O)Nc1ccc(S(=O)(=O)N2CCN(C(=O)Cc3ccccc3)CC2)cc1 | inconclusive: 70.8 µM [inhibitor, partial curve, poor fit]
C=CCOc1ccc(C=NNc2ccc(S(=O)(=O)Nc3ccccc3C(=O)O)cc2[N+](=O)[O-])cc1OC | inconclusive: 44.7 µM [inhibitor, partial curve, poor fit]
Nc1nc(=O)c2ccccc2s1 | inconclusive: 50.1 µM [inhibitor, partial curve, poor fit]
Cc1cccc2sc(N3CCN(C(=O)CS(=O)(=O)c4ccc(F)cc4)CC3)nc12 | inconclusive: 89.1 µM [inhibitor, single point]
CN1CCN(CC(O)(c2ccc(Cl)cc2)c2ccc(Cl)cc2)CC1 | inconclusive: 100 µM [inhibitor, single point]
O=C1ON=C(c2ccccc2)/C1=C/c1ccc(OS(=O)(=O)c2ccccc2)cc1 | inconclusive: 20 µM [inhibitor, full curve, poor fit]

Structure (SMILES) | Potency
CC1(C)N=C(N)N=C(N)N1c1ccccc1 | inconclusive: 89.1 µM [inhibitor, single point]
O=S1(=O)C=C(Sc2nc3ccccc3s2)c2ccccc21 | inconclusive: 44.7 µM [inhibitor, partial curve, poor fit]
CC1=NOC(=O)/C1=C\c1ccc(-c2ccc(Br)cc2)o1 | inconclusive: 35.5 µM [inhibitor, partial curve, poor fit]
Cc1c(N2C(=O)/C(=C3\C(=O)N(CC(=O)O)c4ccccc43)SC2=S)c(=O)n(-c2ccccc2)n1C | inconclusive: 25.1 µM [inhibitor, full curve, poor fit]
C/C(CC1CC(COCCC(C)C)OC1=O)=N\NC(N)=S (stereo not given) | inconclusive: 17.8 µM [inhibitor, full curve, poor fit]
COc1ccc(/C=C/c2nnc(NC(=O)COc3ccc(Cl)cc3)s2)cc1 | inactive
CC(=O)Nc1ccc(NC(=O)CSc2nnc(C)c(=O)n2N)cc1 | inconclusive: 79.4 µM [inhibitor, single point]
CCOc1ccc(C(=O)Nc2ccccc2C(=O)OCc2cc(=O)n3nc(C4CC4)sc3n2)cc1 | inactive
c1ccc2c(C[n+]3csc4ccccc43)cccc2c1 | inconclusive: 50.1 µM [inhibitor, partial curve, poor fit]
O=C(O)c1ccc(CN(Cc2ccccc2)S(=O)(=O)c2ccc(Cl)cc2)cc1 | inconclusive: 28.2 µM [inhibitor, full curve, poor fit]
N#CC1=C(N)Oc2n[nH]c(-c3cccs3)c2C1c1cccs1 (stereo not given) | inconclusive: 89.1 µM [inhibitor, single point]
CCOC(=O)N1CCN(Cc2c(O)ccc3ccccc23)CC1 | inconclusive: 79.4 µM [inhibitor, partial curve, poor fit]
Cc1ccc(C(=O)CSc2n[nH]c(C)n2)cc1 | inconclusive: 79.4 µM [inhibitor, partial curve, poor fit]
Cc1nc2ccc(S(=O)(=O)NC(C(=O)N3CCN(c4ccc(Cl)cc4)CC3)C(C)C)cc2s1 (stereo not given) | inactive
O=C1C(Cl)=C(N2CCOCC2)C(=O)N1c1ccc(Br)cc1 | inconclusive: 44.7 µM [inhibitor, partial curve, poor fit]
O=C1C2C3C=CC(C4CC34)C2C(=O)N1/N=C/c1ccc(-c2ccc([N+](=O)[O-])cc2)o1 (stereo not given) | inactive
COc1cc(OC)c2c(-c3ccccc3)cc(=O)oc2c1C(CCN1CCN(c2ccccc2)CC1)c1ccc(N(C)C)cc1 (stereo not given) | inactive
O=C(c1ccc(Cl)cc1)c1ccc(CN2C(=O)c3ccccc3C2=O)o1 | inactive
CC(NC(=O)CN1C(=O)NC(c2ccccc2)(c2ccccc2)C1=O)c1cccs1 (stereo not given) | inconclusive: 89.1 µM [inhibitor, single point]
CCOc1cc(C2C(C#N)=C(N)SC(N)=C2C#N)ccc1OCCN1CCOCC1 | inconclusive: 28.2 µM [inhibitor, full curve, poor fit]
COc1cccc(-c2onc3ccc(C(C)=O)cc23)c1 | inactive
CN(CC(=O)NCC(c1ccccc1)N1CCCC1)S(=O)(=O)c1ccc(Cl)cc1 (stereo not given) | inconclusive: 79.4 µM [inhibitor, single point]

Structure (SMILES) | Potency
N#CC1=C2Nc3ccccc3N2C(=O)NC1(c1ccccc1)C(F)(F)F (stereo not given) | inconclusive: 79.4 µM [inhibitor, partial curve, poor fit]
CC(NC(=O)c1cccc(S(=O)(=O)N2CCN(Cc3ccccc3)CC2)c1)c1ccc(Br)cc1 (stereo not given) | inactive
CC(=O)c1ccc(S(=O)(=O)N2CCN(C(=O)c3ccc(-n4nc(C)c(Cl)c4C)cc3)CC2)cc1 | inactive
CNc1nc(OC)nc(N(C#N)CN2C(=O)c3ccccc3S2(=O)=O)n1 | inconclusive: 56.2 µM [inhibitor, partial curve, poor fit]
O=C(CSc1cccc2cccnc12)Nc1ccccc1F | inactive
COc1ccc(/C=N/Nc2nc(=O)[nH]nc2C)cc1[N+](=O)[O-] | inactive
Cn1ncc2c(c(SCc3ccc(Cl)cc3Cl)nn2C)c1=O | inconclusive: 89.1 µM [inhibitor, partial curve, poor fit]
CC1=NN(c2ccc(C)c(C)c2)C(=O)/C1=C/c1ccc2c(c1)n(C)c(=O)n2C | inconclusive: 100 µM [inhibitor, partial curve, poor fit]
CCN(C(=O)c1cccn(Cc2ccccc2C)c1=O)c1ccccc1 | inactive
Nc1ccc2c(c1)Cc1cc(N)c(Br)cc1-2 | inconclusive: 11.2 µM [inhibitor, full curve, poor fit]
Cn1c(SCc2ccccc2)nnc1-c1ccc2c(c1)OCO2 | inconclusive: 89.1 µM [inhibitor, single point]
CCOC(=O)c1c(NC(=O)/C=C/c2ccco2)sc(C)c1C | inconclusive: 100 µM [inhibitor, single point]
COc1cccc(CNc2ccc(N3CCCCC3)cc2)c1OC | inconclusive: 17.8 µM [inhibitor, full curve, poor fit]
CCc1ccc(NC(=O)CSc2ccc(-c3ccco3)nn2)cc1 | inconclusive: 50.1 µM [inhibitor, partial curve, poor fit]
Cc1ccc(C)c(S(=O)(=O)ON2C(=O)c3ccccc3C2=O)c1 | inconclusive: 17.8 µM [inhibitor, full curve, poor fit]
c1ccc(CCc2nn3c(C4COc5ccccc5O4)nnc3s2)cc1 (stereo not given) | inconclusive: 89.1 µM [inhibitor, partial curve, poor fit]
CNc1ccc2c3c(cccc13)C(=O)N(C)C2=O | inactive
COc1ccccc1/C=C\C(=O)NCC(=O)N/N=C/c1cccc(OC)c1O | inconclusive: 70.8 µM [inhibitor, partial curve, poor fit]
CSc1ncc(Cl)c(C(=O)Nc2ccc(S(=O)(=O)N3CCOCC3)cc2)n1 | inconclusive: 70.8 µM [inhibitor, single point]
CCOc1ccc(NC(=O)Cn2c(=O)n(Cc3ccccc3)c(=O)c3sc4ccccc4c32)cc1 | inactive
Cc1nn(CCCC(=O)Nc2sc3c(c2C#N)CCC3)c(C)c1[N+](=O)[O-] | inconclusive: 100 µM [inhibitor, partial curve, poor fit]
